Measurements as given in publication PMC12136788.
This is one part of the list.

T1: UNK ZnF1-3 (human, UniProt Q9C0B0 31-174)
T1 sequence: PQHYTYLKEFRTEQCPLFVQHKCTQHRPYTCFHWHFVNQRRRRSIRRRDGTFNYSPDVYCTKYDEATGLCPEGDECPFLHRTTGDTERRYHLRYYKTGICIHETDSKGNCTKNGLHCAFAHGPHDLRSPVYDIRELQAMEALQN

B1: chr3:138341159:138341160:+_ENSG00000158234_ENST00000393035|hu_hu|motif|central (ssRNA)
RNA: GGGAGUUCUACAGUCCGACGAUCGAGACUUUUCCCAUUAAUUUCCAGAGUAUAUUCAUAAGCAAAACCACUGAUAGCGUCGGUAUUUAUGGUCGCUUUUGUCUUUGCAGCUCCAACAUAGAAUGUUUCUUUGCCCACUAAUUUCAACAGAGGAUUGAGCAUCA
B2: chr1:27731043:27731044:-_ENSG00000158195_ENST00000430629|hu_mus|FALSE|FALSE (ssRNA)
RNA: GGGAGUUCUACAGUCCGACGAUCCAGGUCCCACCUCCCAACCUUUGGGAAGAAAGGGUCUAUUUUUAGACAGUAUUCCCUCUAUGCAUUAGCUAGCAGAAAUCUUGAUAUGGGAAACACCAAGAGCCUAUUGGAAUAGGUCCUCAACAGAGGAUUGAGCAUCA
B3: chr12:77883889:77883890:+_ENSMUSG00000090258_ENSMUST00000041262|mus_mus|FALSE|FALSE (ssRNA)
RNA: GGGAGUUCUACAGUCCGACGAUCGAAGAGCAGUCGGGUGCUCUUACCCACUGAGCCAUCUCACCAGCCCUAGGCUUGCUCUAUUUUAAAGCAAGCCAACACAGUUACAAGAGAACCAUGGGAGGCUUAGAACAGCAGAGUCAUCAACAGAGGAUUGAGCAUCA
B4: chr11:106647441:106647442:-_ENSMUSG00000020719_ENSMUST00000021062|mus_mus|motif|central (ssRNA)
RNA: GGGAGUUCUACAGUCCGACGAUCUAUGUGUACAAUGGCAGGCAGCAAAUAAGAUAAUGUUUUCCCAGAUCCAGUCUGAGCGGCUCCAACCAUAUCCAAUCCACUGAGAGCAACUGGCCAGCCCUGAGCUUGAAUAGCAGUGGGCAACAGAGGAUUGAGCAUCA
B5: chr3:41417089:41417090:+_ENSMUSG00000025764_ENSMUST00000026865|mus_mus|motif|central (ssRNA)
RNA: GGGAGUUCUACAGUCCGACGAUCAACCAAGGAAGUGCCCAUUUGUUUCCUGAAGAAUGCAGAAUGCCAUUUCAAGUCCUCGGUCUUGGGAGCAUUGGGGCCCACAGAAGGACUGUUGAAAAAAAGCAUGUUCUCCAGUGCGGACAACAGAGGAUUGAGCAUCA
B6: chrX:50293416:50293417:+_ENSMUSG00000025626_ENSMUST00000078944|mus_mus|FALSE|FALSE (ssRNA)
RNA: GGGAGUUCUACAGUCCGACGAUCUUUCUUCUUAGUCUUUGGAGAUGAGGGCUCCAGUUCAUGCUCAUUAAAACUUUCUUCUAAAUCAGCUUCCGAGUUAUGUGCAGUUUUCUUGUGUUUUCGACAAUAAACCAUGUAAAUCCCCAACAGAGGAUUGAGCAUCA
B7: chrX:71549400:71549401:+_ENSMUSG00000019087_ENSMUST00000019231|mus_hu|mus_mus_mus_hu_False|1_88 (ssRNA)
RNA: GGGAGUUCUACAGUCCGACGAUCGCAGUAGGAAGAGGGAAGCUCUUCAUCCACUGUCGCUGCAGGGUGGGAAAGCAACAACACGGACACCGUCCCACCCUCAACCCCCCCACUGGCACAGGGUCACACAAUCUGGGAAGUGAUCAACAGAGGAUUGAGCAUCA
B8: chr5:37680062:37680063:+_ENSMUSG00000029121_ENSMUST00000031004|mus_hu|mus_mus_mus_hu_False|18_28 (ssRNA)
RNA: GGGAGUUCUACAGUCCGACGAUCUUUGGGUGUAGCUGGUACCUCGUACACAGGACCGUCAUACAUGCCCCUGGAAACCCCUUGCAAUCCAAAAACCUUAUUCCUGAUCCUGACACGCUGGUAGAGAUGCUCCGGGAACGCCUUCAACAGAGGAUUGAGCAUCA
B9: chr18:24770415:24770416:+_ENSMUSG00000024271_ENSMUST00000025120|mus_mus|motif|central (ssRNA)
RNA: GGGAGUUCUACAGUCCGACGAUCACAAACAGGUCCUUCAUGGCCUUGGAGACGGACUGAUUUUAAAACCUGAUUAUUCUCGGGUUCCCAAUGAAUCACCCGAUUGUCAGAUCCUCCAGACACCAGCUCAUUGGAAGGGGAGCCCAACAGAGGAUUGAGCAUCA
B10: 141322406_141322605_2024_CDS_ENSMUSG00000040697_ENSMUST00000038014|mouse|control|control (ssRNA)
RNA: GGGAGUUCUACAGUCCGACGAUCCUCUUUGGUGAAGCUCGGCUCAGUCUUCCCAGCCUUCUCGGGGACUUCCUCUUUGUCUGCAGGGUGCGACUCUCGCUCCUCAUUUGAGUCACUGAAAGCCUGGACCAUGACCGUGCCGAACAACAGAGGAUUGAGCAUCA
B11: 151328270_151343212_477_3pUTR_ENSG00000115963_ENST00000263895|human|control|control (ssRNA)
RNA: GGGAGUUCUACAGUCCGACGAUCUUCCACUUUUUGAGGACACUGUCCAGGGUCUCUGGUCUACUGAUGUCAAAGCAAAUCAGCACAGCAUCCGAAUCAGGGUAAGAGAGGGGGCGGACAUUGUCAUAGUAAGGAGAACCCGAACAACAGAGGAUUGAGCAUCA
B12: chr8:11781157:11781158:+_ENSMUSG00000031511_ENSMUST00000110909|mus_hu|FALSE|FALSE (ssRNA)
RNA: GGGAGUUCUACAGUCCGACGAUCUAAGGAACUGAGGACCUUGUUAAAAUUCUGCCCCUGAUACAAAUCAUUUGCAUCAAACGUCUCCAGCCGCAGGGAAGCCCCGCAGCCGCGCAGGAACUCGCGGAUGUUGCUCAGGCACUCCAACAGAGGAUUGAGCAUCA
B13: chr1:66480114:66480115:+_ENSMUSG00000015222_ENSMUST00000024639|mus_mus|FALSE|FALSE (ssRNA)
RNA: GGGAGUUCUACAGUCCGACGAUCUGGCCUGUGACGGAUGUUCUUUAGAGAGCCACAUUUGGAUGUCACAUGGCUUAAGUCUAUCUUCUUAGUAACAAUUUGUACCUGACCCCCCUUAGGCUGGUAUUUGAUGUUGUCAGUUGACAACAGAGGAUUGAGCAUCA
B14: 75205495_75208088_1911_CDS_ENSG00000129657_ENST00000413679|human|control|control (ssRNA)
RNA: GGGAGUUCUACAGUCCGACGAUCGCACACGUCGAAAUCCCAAGUGAUGACUGACGAGGCAUCCACAAUCUGAAUGAGAAUCUCAUGUGGGGCUCCUUUGAAGACGCUUGCAGACUGGUAGAUGGUCUCAGUCCAGAGCUUCAGCAACAGAGGAUUGAGCAUCA
B15: chr14:90871081:90871082:+_ENSG00000198668_ENST00000553542|hu_mus|FALSE|FALSE (ssRNA)
RNA: GGGAGUUCUACAGUCCGACGAUCUUCUUUUUUUUGUAAGAGGUAAGUAAAAGAUUUCAAUUUGAUUCUUCUAGAGGGGGAAAAGUAGUUGAAAGUAGGUCUUCAUUUUGCAGUCAUCAUCUGUACGAAUUCUUCAUAGUUGACCAACAGAGGAUUGAGCAUCA
B16: chr1:115110812:115110813:-_ENSG00000116752_ENST00000369541|hu_mus|FALSE|FALSE (ssRNA)
RNA: GGGAGUUCUACAGUCCGACGAUCGUCUUGGCGGAUGUUUUCCUUGUUGGCCUCCCCGUGCUGCUGCUUGAUCUGAUAGAUCUCGUUCUCCAGCUGGACAAUCGUCCGCUCAAUCUCAUAGUUCUUACUCACCAGCGACACCCACAACAGAGGAUUGAGCAUCA
B17: chr11:71671816:71671817:+_ENSG00000137522_ENST00000530137|hu_mus|FALSE|FALSE (ssRNA)
RNA: GGGAGUUCUACAGUCCGACGAUCGCAAUGAGGAUGAGGACCAUUUCAGCGUGCAUGGCUUCGUGGCCACGAUGUUUGGCAUGCAUUCGAGCAUGUUCGACCCUCCACUGCUCCUCUGGGGAGAGGUCUGACAUAUCAACCUCACAACAGAGGAUUGAGCAUCA
B18: chr8:11181129:11181130:+_ENSG00000104643_ENST00000221086|hu_hu|motif|central (ssRNA)
RNA: GGGAGUUCUACAGUCCGACGAUCCAGUGCAUCUCUGGUUUAAGAAAACCUAUUUGUAGCUUGAUUAUAAUAAAUUAACUCGGUUCGGGAUGAUGGUUUAAUUUUACAAGCAGCAUUUGAAACACAUUGUAUAUGUAUGCUCAACAACAGAGGAUUGAGCAUCA
B19: chr12:39756943:39756944:-_ENSG00000139116_ENST00000544797|hu_mus|hu_hu_hu_mus_False|8_18 (ssRNA)
RNA: GGGAGUUCUACAGUCCGACGAUCGGUUUGGCUGUUACCCCCAAGGGAAUCCUGCAAGAGUCUUGUCAGCUUAGAGUCUCUGUAAGGGACAUGGGUGGCUCUCUUGCUCUUGUCCCCCAAGGCACUUAUUACAUUGCCAAGAGCCAACAGAGGAUUGAGCAUCA
B20: chr6:114281168:114281169:-_ENSG00000196591_ENST00000368632|hu_hu|hu_hu_hu_mus_True|1_98 (ssRNA)
RNA: GGGAGUUCUACAGUCCGACGAUCUUCCAUUUUUCGGUAUAAGCCAUAAUUUAGCAGCAAGUUAUGAGUCAUCCGGAUUCUAUGAGGCUUCAUGGGAUGACCCUGGCCAUAAUAAUAAUUGCCAAUAUCACCAUCAUACUAGAACAACAGAGGAUUGAGCAUCA
B21: 105421030_105421150_1886_CDS_ENSG00000114423_ENST00000394027|human|control|control (ssRNA)
RNA: GGGAGUUCUACAGUCCGACGAUCACUCGCUGUGAUUCCAGGUUUUGGAGAGCCCUCCCCUAGGAGUCGACAUCCCACAAGCUGAUUAGUCCCAAACACAUCCCGAGGGCACCAUGCUUCAAGAGGCAUUGGCGGGUCUCUGGACAACAGAGGAUUGAGCAUCA
B22: 38690349_38690469_566_CDS_ENSG00000109787_ENST00000261438|human|control|control (ssRNA)
RNA: GGGAGUUCUACAGUCCGACGAUCGUAUUUUUUUAUCGGUGGGCUGGAAGAAGGCAUGCUCAACCCAGGCGAGGCUCUCCGGUGUGAGGACGGGAACUUCAGAGAGGAGGGCGAAUUCCCAGCCGAAGGGGGUGAACUCCGCUUCAACAGAGGAUUGAGCAUCA

The binders below were run against T1, UNK ZnF1-3 (assay: nsRBNS (natural sequence RNA bind-n-seq); RBNS binding buffer (assumed for nsRBNS): 25 mM Tris pH 7.5, 150 mM KCl, 3 mM MgCl2, 0.01% Triton X-100, 500 ug/ml BSA, 20 U/ml SUPERase-In, 4 C; UNK is unkempt and MSI1 is Musashi-1; names of the RNAs are library labels; protein concentration not given here; high values mean tight binding).

Row | Binder | binding signal
1 | B1 | 0.915 enrichment R
2 | B2 | 0.86 enrichment R
3 | B3 | 1.36 enrichment R
4 | B4 | 1.71 enrichment R
5 | B5 | 1.44 enrichment R
6 | B6 | 0.697 enrichment R
7 | B7 | 0.829 enrichment R
8 | B8 | 0.928 enrichment R
9 | B9 | 1.17 enrichment R
10 | B10 | 0.503 enrichment R
11 | B11 | 1.43 enrichment R
12 | B12 | 0.885 enrichment R
13 | B13 | 0.553 enrichment R
14 | B14 | 1.18 enrichment R
15 | B15 | 1.26 enrichment R
16 | B16 | 0.605 enrichment R
17 | B17 | 1.12 enrichment R
18 | B18 | 0.938 enrichment R
19 | B19 | 0.595 enrichment R
20 | B20 | 0.75 enrichment R
21 | B21 | 0.891 enrichment R
22 | B22 | 1.44 enrichment R
